These results are taken from PubChem BioAssay AID1346428 (National Center for Advancing Translational Sciences (NCATS), 2018).

Structures are written as SMILES. Screen size: about 48,000 compounds; about 1,200 (2.5%) were called active. Inconclusive results (about 2%) are left out.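 Rule for the calls: active = activation of at least 60% and not above a set upper limit (about 1 call in 100 departs from these limits); inconclusive = activation of 40% to 60%, or above that upper limit; inactive = activation under 40%.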 The list shows a part of the results.

UniProt O75388, sequence (O75388 whole entry, looked up): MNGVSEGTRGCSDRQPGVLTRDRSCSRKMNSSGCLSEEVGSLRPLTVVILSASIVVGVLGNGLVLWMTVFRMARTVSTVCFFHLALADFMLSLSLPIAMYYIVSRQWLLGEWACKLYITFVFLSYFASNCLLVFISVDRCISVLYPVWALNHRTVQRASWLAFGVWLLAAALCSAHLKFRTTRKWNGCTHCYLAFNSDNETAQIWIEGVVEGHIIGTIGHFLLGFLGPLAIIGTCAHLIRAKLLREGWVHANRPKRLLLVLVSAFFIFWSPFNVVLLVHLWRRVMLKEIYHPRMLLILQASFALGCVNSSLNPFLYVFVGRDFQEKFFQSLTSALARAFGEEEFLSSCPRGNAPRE

For this test, the target named is Probable G-protein coupled receptor 32 (Homo sapiens) (UniProt O75388). In words: qHTS for Agonists of Human Resolvin D1 Receptor DRV1. Note: 0% is about no effect. The following applies: CHO-K1 GPR32 beta-arrestin PathHunter luminescence, 90 min; at 76.9 µM; active compounds read high; zero percent set by DMSO-only wells. Summed up:
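Luminescent readout of beta-Gal complementation quantifies ligand-induced beta-arrestin association with GPR32 in CHO-K1 cells; 90 min compound incubation at 37 °C, detection 1 h at room temperature.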
Background: qHTS replaces the single test concentration by a dilution series.
Regarding `CC1=C(c2ccc(C(C)C)cc2)S(=O)(=O)NC1=NCCCN1CCN(c2ccccc2F)CC1`, the activation is inactive: 0.545%.
On to `Cc1ccc(CN2CCc3nc(Nc4ccc5c(c4)OCCO5)ncc3C2)cc1`, for which the activation is inactive: 29.3%.
For the molecule `CCS(=O)(=O)N1CCc2cc(C(=O)Nc3ccc(C(=O)OC)cc3)ccc21`, the activation was inactive: 17.7%.
Consider `CCOc1ccc(CNC(=O)c2cnc3sc(N4CCOCC4)nn3c2=O)cc1`, for which the activation was inactive: 0.665%.
In the case of `CCn1cc(C(=O)N2CCN(c3cccc(Cl)c3)CC2)c2cc(OC)c(OC)cc2c1=O` it was inactive: 14.6%; in that of `COc1ccc(-c2nc(CCNC(=O)c3cccs3)cs2)cc1`, inactive: 8.94%; in that of `CNC(=O)Cn1nc(-c2ccc(Cl)cc2)c2ccccc2c1=O`, inactive: 1.1%.
On to `CCOC(=O)c1ccc(NC(=O)CC2Sc3ccc(C(F)(F)F)cc3NC2=O)cc1` (centres undefined), for which the activation was inactive: 21.5%.
In the case of `CCCCC(CC)CNC(=O)CN(C)S(=O)(=O)c1ccc2c(c1)c(=O)n(C)c(=O)n2C` (centres undefined) it was inactive: 10.4%; in that of `COc1ccc(NC(=O)CSC2=Nc3ccccc3C3=NC(CCC(=O)NCc4ccc(F)cc4)C(=O)N23)cc1Cl` (centres undefined), inactive: -14.7%.
On to `Cc1cc(NC(=O)CCNS(=O)(=O)c2ccc3c(c2)CCCC(=O)N3)ccc1Br`, for which the activation was active: 100%.
`Cc1ccc(CN(C(=O)COc2ccc(Cl)cc2)c2ccccn2)o1`: the activation is inactive: 18.6%.
Turning to `COc1cccc(N2CCN(C(=O)C3CCN(S(=O)(=O)c4cccc5nonc45)CC3)CC2)c1`, the activation was inactive: -9.08%.
To `Cc1nn(C)c2c1c(-c1ccccc1)cc(=O)n2Cc1ccccc1Cl` belongs inactive: -20.5%; to `COc1ccc(CCNC(=O)Cn2nc(C)n3c(cc4cc(F)ccc43)c2=O)cc1OC`, inactive: -5.91%.
Regarding `CCOc1ccccc1NC(=O)c1c(NCc2ccc(C)o2)sc2c1CCC(C)C2` (centres undefined), the activation was inactive: 10.5%.
In the case of `CCCCN(C)C(=O)Cn1c(C2CC(=O)N(c3ccc(C)cc3)C2)nc2ccccc21` (centres undefined) it was inactive: 3.73%; in that of `Cc1ccc(C)c(N2CCN(C(=O)c3cc4c(=O)n(Cc5ccco5)ccc4nc3C)CC2)c1`, inactive: -22.2%; in that of `COc1cccc(C(=O)Nc2cccc(NC(=O)c3ccc(Cl)cc3Cl)c2)c1`, inactive: -10.3%.
In the case of `COc1ccc(S(=O)(=O)Nc2ccc3oc4c(c3c2)C(=O)CC(C)(C)C4)cc1` it was active: 64.3%.
Turning to `COC(=O)c1cc(S(=O)(=O)NCC2CCN(Cc3ccc(C)cc3)CC2)cn1C`, the activation was inactive: 5.98%.
To `CCOc1ccc(CNC(=O)CCCn2nc(C)c3sc4ccccc4c3c2=O)cc1` belongs inactive: -19.2%; to `CCC(C)Nc1sc(S(=O)(=O)CC)nc1S(=O)(=O)c1ccc(C)cc1` (centres undefined), inactive: -17%.
To `Cc1ccc(C)c(NC(=O)Cn2c(=O)nc(-c3ccccc3)c3ccccc32)c1` belongs inactive: -11.1%.
In the case of `CCCOc1ccc(-c2nn(-c3ccccc3)cc2C2NC(=O)NC(C)=C2C(=O)OC)cc1` (centres undefined), the activation is inactive: -8.94%.
For the molecule `CCc1ccc(C(=O)c2cn(CC(=O)Nc3cc(OC)ccc3OC)c3ccc(C)cc3c2=O)cc1`, the activation was inactive: 19.6%.
To `Cc1cccc(NS(=O)(=O)c2ccc3c(c2)[C@H]2C=CC[C@H]2[C@@H](c2ccc(F)cc2)N3)c1` belongs inactive: -26.4%; to `COc1ccc(-c2cccc(NS(=O)(=O)c3ccc(C)s3)c2)nn1`, inactive: 2.98%.
Consider `COCCCNC(=O)c1oc2c(c1C)-c1nn(Cc3ccc(Cl)cc3)cc1CC2`, for which the activation is inactive: -3.99%.
Take `Cn1cc(CCC(=O)NCc2ccc(Cl)cc2)c2ccccc21`: the activation is inactive: -20.2%.
In the case of `Cc1cc(C)cc(NS(=O)(=O)c2ccc(-n3cccn3)cc2)c1` it was inactive: 7.11%; in that of `CCOc1cc(CNc2ccc(C(=O)O)cc2)ccc1OCc1ccccc1`, inactive: -0.148%; in that of `O=C(O)c1c(-c2ccccc2)oc2ccc(OCc3ccc(Cl)c(Cl)c3)cc12`, inactive: 2.35%.
Turning to `CC1CCC(Nc2ncnc3onc(-c4ccc(F)cc4)c23)CC1` (centres undefined), the activation was inactive: 13.9%.
To `COc1cccc(-n2c(=O)c3c(C)c(C)sc3n(CC(=O)Nc3ccccc3OC)c2=O)c1` belongs inactive: -15.1%.
For `CCOc1cccc(C(=O)N(Cc2ccc(N(C)C)cc2)CC2CCCO2)c1` (centres undefined), the activation was inactive: -20.4%.
To `CCc1ccc(CNCc2c(C(=O)O)c(C)n(Cc3c(F)cccc3Cl)c2C)cc1` belongs active: 95%; to `Cn1c(=O)n(C)c2cc(N3CCOCC3)c(NS(=O)(=O)c3ccc(C(C)(C)C)cc3)cc21`, inactive: -4.29%.
In the case of `Cc1ccccc1CC1C(=O)Nc2ccc(Br)cc21` (centres undefined) it was inactive: -26.8%; in that of `CC1CCN(S(=O)(=O)c2ccc3c(ccc(=O)n3CC(=O)Nc3ccc(C(C)C)cc3)c2)CC1`, inactive: 8.68%; in that of `CCc1ccccc1NC(=O)N1CCC(CN2CCc3ccccc3C2)CC1`, inactive: -23%.
To `Cc1ccc(C(=O)CCC(=O)Nc2ccc(C)cc2C)cc1` belongs inactive: -5.92%; to `CCOc1ccc(N(C(=O)c2ccccc2F)S(=O)(=O)c2ccc3c(c2)n(C)c(=O)n3C)cc1`, inactive: -13.4%; to `CCOC(=O)c1c(-c2ccc(C)cc2)csc1NC(=O)c1cc(-c2ccc(Cl)cc2)on1`, inactive: -3.68%.
In the case of `Cc1ccc(CNC(=O)C2CCCCN2S(=O)(=O)c2ccc(F)cc2)cc1` (centres undefined), the activation was inactive: 29.1%.
`Cc1ccc(-c2nc(-c3cc4cccc(OCc5ccc(F)cc5)c4oc3=O)no2)cc1`: the activation is inactive: 15.2%.
With `Cc1ccc(O)c2ncccc12`, the activation was inactive: -40.2%.
In the case of `Cc1ccc(NC(=O)CSc2nc(-c3ccc(C(C)(C)C)cc3)nc3cc(=O)[nH]n23)cc1C` it was inactive: 1.55%; in that of `CSc1ncc(C(=O)Nc2cccc(C)c2C)c(-c2ccccc2)n1`, inactive: -11.1%; in that of `COc1ccc(CNC(=O)C2CCN(S(=O)(=O)c3ccc(F)cc3)CC2)cc1`, inactive: -1.47%.
In the case of `COC(=O)c1ccc2c(c1)N(Cc1cc(C)ccc1C)C(=O)c1ccccc1S2` it was inactive: -20%; in that of `CC(CNC(=O)c1ccc(CSc2nc3ccncc3n2Cc2ccc(F)cc2)cc1)c1ccccc1` (centres undefined), inactive: -6.06%; in that of `CCN1CCc2nc3sc(C(=O)c4ccccc4)c(N)c3cc2C1`, inactive: -14.5%.
In the case of `CCN(c1ccccc1)S(=O)(=O)c1nnc(NC(=O)C(C)(C)C)s1` it was inactive: -0.689%; in that of `Cc1nc2nc(NCc3cccc(Cl)c3)[nH]n2c(=O)c1Cc1ccccc1`, inactive: -0.663%; in that of `CCOc1ccc2nc(N3CCCC(C(=O)NCCCOC)C3)sc2c1` (centres undefined), inactive: 5.97%.
For `COC(=O)c1ccc(Cn2c(SCc3ccccc3F)nc3ccncc32)cc1`, the activation is inactive: -5.85%.
Regarding `CCOc1ccc(CCNC(=O)Cn2c(=O)c3cccn3c3ccc(F)cc32)cc1OCC`, the activation is inactive: -20%.
With `COc1ccc(-c2cc3ccc(O)c(CN4CCCC(C)C4)c3oc2=O)cc1` (centres undefined), the activation is inactive: 3.15%.
In the case of `Cc1ccc(Cl)cc1-n1ncc2c(NCc3ccc(F)cc3)ncnc21` it was inactive: 26.4%.
To `COc1ccc(OCCn2c(C(C)Oc3ccccc3)nc3ccccc32)cc1` (centres undefined) belongs inactive: -16.4%; to `CC1C(=O)Nc2ccc(S(=O)(=O)NCc3ccc(N(C)C)cc3)cc2NC1=O` (centres undefined), inactive: -9.96%.
For `COc1ccc(Cn2c(CCC(=O)Nc3ccc(C)c(C)c3)nc3cccnc32)cc1`, the activation was inactive: 37.5%.
Regarding `CCCN(CCC)C(=O)CN1C(=O)CSc2ccc(S(=O)(=O)N3CCC(C)CC3)cc21`, the activation is inactive: -9.04%.
To `CC(=O)N1CCc2cc(S(=O)(=O)NC(CC(C)C)C(=O)NCCc3ccc(C)cc3)ccc21` (centres undefined) belongs inactive: 29.9%; to `COc1cccc(C(=O)c2cn(CC(=O)Nc3cccc(C(F)(F)F)c3)c3nc(C)ccc3c2=O)c1`, inactive: -7.63%; to `CCN(CC)S(=O)(=O)c1ccc2c(c1)nc(CN(C)C(=O)Nc1cccc(Cl)c1)n2C`, inactive: -3.49%.
To `O=C(Nc1ccc(N2CCN(c3ccc(F)cc3)CC2)c(C(=O)O)c1)c1ccccc1F` belongs inactive: -8.95%; to `COc1ccc(C)cc1NC(=O)C1CCN(S(=O)(=O)c2ccc3c(c2)CCCN3C(C)=O)CC1`, inactive: 2.55%; to `CC1=C(C(=O)Nc2cccnc2)C(c2ccccc2)n2nc(SCc3ccccc3Cl)nc2N1` (centres undefined), inactive: -2.59%.
For the molecule `Cc1ccc(CCNC(=O)Cn2ncc3c([nH]c4ccc(C)cc43)c2=O)cc1`, the activation was inactive: -4.7%.
In the case of `CCOC(=O)c1ccc(NC(=O)CSc2nc3ccccc3c(=O)n2CCNC(C)=O)cc1` it was inactive: -5.41%.
In the case of `CCc1ccc(NC(=O)CN2C(=O)C(c3ccc(F)cc3)=NC2(C)C)cc1` it was inactive: -46.7%; in that of `CCCCOc1ccc(Cn2c(=O)oc3ccc(C)cc32)cc1`, inactive: -1.52%.
On to `COc1ccc(OC)c(NC(=O)CSc2cn(CC(=O)N3CCCCCC3)c3ccccc23)c1`, for which the activation is inactive: -7.13%.
With `Cc1cccc(-c2nnn3c2nc(NCCc2ccc(S(N)(=O)=O)cc2)c2ccccc23)c1`, the activation was inactive: -29.1%.
To `CCCN(CCC)CCNC(=O)Cn1cc2c(n1)-c1c(oc(C(=O)N3CCCC3)c1C)CC2` belongs inactive: -13.6%; to `O=C(CS(=O)(=O)c1cccc2nsnc12)Nc1ccc(F)cc1`, inactive: -3.12%; to `CCSc1ncc(Cl)c(C(=O)N(Cc2ccc(N(C)C)cc2)Cc2ccco2)n1`, inactive: -32.5%.
As to `COc1ccc(S(=O)(=O)N2CCN(c3ccc(Cl)c(Cl)c3)CC2)c2ccccc12`, the activation is inactive: -2.46%.
In the case of `COCCNC(=O)c1ccc2c(c1)N(Cc1cc(C)ccc1C)C(=O)c1ccccc1S2(=O)=O` it was inactive: -12.4%; in that of `COC(=O)c1cc(S(=O)(=O)NCC2CCN(Cc3ccc(F)cc3)CC2)c[nH]1`, inactive: -14.5%; in that of `COCCNC(=O)CSc1nc2cc3c(cc2c(=O)n1CCCC(=O)NCc1ccc(OC)cc1)OCO3`, inactive: -10.2%.
In the case of `CCOc1ccc(Cn2c(-c3ccc(OCC)c(OC)c3)nc3ccccc32)cc1OC` it was inactive: -0.688%.
